For 95 compounds, inhibition results are on record in PubChem BioAssay AID485344 (National Center for Advancing Translational Sciences (NCATS), 2010).

Hit rate of the full screen: of about 340,000 compounds, about 6,900 (2%) were called active. No stated cut-off is given here; in the data, active means inhibition above about 30%; inactive means below that, where a call was filed. The list shows a part of the results, in another mix than the full data. The source gives no active or inactive call for entries shown without one.

Chain of UniProt P14416 (P14416 whole entry, looked up): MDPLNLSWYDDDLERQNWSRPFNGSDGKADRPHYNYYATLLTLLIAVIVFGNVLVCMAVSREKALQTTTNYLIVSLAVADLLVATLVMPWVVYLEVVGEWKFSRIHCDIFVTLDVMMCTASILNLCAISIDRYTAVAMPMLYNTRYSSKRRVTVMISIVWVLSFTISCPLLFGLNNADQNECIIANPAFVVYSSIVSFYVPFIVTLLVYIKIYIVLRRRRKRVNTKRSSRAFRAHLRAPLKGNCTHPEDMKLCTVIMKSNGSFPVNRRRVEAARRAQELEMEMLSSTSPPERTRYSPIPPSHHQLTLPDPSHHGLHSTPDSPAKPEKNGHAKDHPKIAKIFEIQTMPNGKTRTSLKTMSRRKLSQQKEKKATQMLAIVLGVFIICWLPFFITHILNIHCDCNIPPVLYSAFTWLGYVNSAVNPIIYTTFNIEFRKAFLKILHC

In the test the target is D(2) dopamine receptor (Homo sapiens) (UniProt P14416). Kind of test: HTS Assay for Allosteric Antagonists of the Human D2 Dopamine Receptor: Primary Screen for Antagonists. Further: 0% is about no effect. The conditions noted are these: HEK293 TREx D2 cells, calcium flux, dopamine EC80; at 10 µM; stronger effect = higher value. In a few lines:
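Measurement of antagonist activity uses fluorescent calcium dye in inducible HEK293 T-REx D2 cells: 10 s baseline, compound addition with 180 s read, EC80 dopamine addition with a further 180 s read.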
As to `CC(Oc1ccccc1)C(=O)OCc1cc(=O)n2nc(C(C)C)sc2n1` (stereo not given), the inhibition was -16%. For `Fc1ccccc1N1CCN(c2ncc3c(n2)CCN(Cc2ccc(Br)s2)C3)CC1` the value was 13.4%; for `CC(=O)c1c(NCc2ccccc2)nc(=O)n(-c2ccccc2)c1C`, active: 39.7%; for `COc1ccc(CCNc2nc(SCc3ccc(F)cc3)nc3ccccc23)cc1OC`, 15.2%. Consider `O=S(=O)(Nc1ccc(-c2ccc(N3CCCCCC3)nn2)cc1)c1cccc(C(F)(F)F)c1`, for which the inhibition amounted to 10.5%. The value for `CC1=C(c2ccc(C)c(C)c2)S(=O)(=O)N=C1N1CCC(C(=O)Nc2ccc(Cl)cc2)CC1` was -16.8%; that for `CCc1nn(CC(=O)N2CCN(c3cc(C)ccc3C)CC2)c(=O)c2cc3occc3n12` was -3.45%; that for `CNC(=O)c1ccc(CSc2nc3cccnc3n2Cc2cccc(F)c2)cc1` was -10.2%. The value for `C=CCSc1ncc(CO)n1Cc1ccccc1` was active: 36.5%. The value for `O=[N+]([O-])c1ccccc1OCCCCN1CCCCC1` was active: 93.9%; that for `CCc1ccc(-c2nc(SCC(=O)NCC3CCCO3)c(-c3ccc(F)cc3)[nH]2)cc1` (stereo not given) was 26.1%; that for `N#Cc1ccc(NC(=O)c2cc(-c3cccc(Cl)c3)on2)cc1` was 23.1%. `COc1cc(NC(=O)NCCn2nnc3cc(S(=O)(=O)N(C)C)ccc32)cc(OC)c1OC`: the inhibition is 0.615%. For the compound `COc1cc(NC(=O)c2cc3cc4ccc(OC)c(Cl)c4nc3s2)cc(OC)c1`, the inhibition came to 17.7%. The value for `CCC(Sc1ccc2nnc(CCNS(=O)(=O)c3ccc(OC)cc3)n2n1)C(=O)OC` (stereo not given) was 1.76%. With `Cc1ccc(-c2cc3ncc4c(n3n2)-c2ccccc2OC4)cc1`, the inhibition is -3.13%. For `COc1ccc(-c2nc3c4ccccc4n(CC(=O)Nc4ccc(C(C)=O)cc4)c(=O)n3n2)cc1` the value was 15.6%; for `Cc1ccccc1C(=O)NC1(C(F)(F)F)C(=O)Nc2c1c(=O)[nH]c(=O)n2CCc1ccccc1` (stereo not given), -4.84%; for `Cc1nc2ccc(S(=O)(=O)NCC(=O)Nc3ccc(C)c(Cl)c3)cc2s1`, 9.54%. The value for `Cc1cc(C)cc(NC(=O)CSc2nc3c(cnn3-c3ccc(F)cc3)c(=O)[nH]2)c1` was 2.65%; that for `O=S(=O)(c1ccc(Cl)cc1)N1CCC(c2ccncc2)CC1` was 5.83%. Consider `COc1cccc(C(=O)Nc2ccc(C(=O)OCc3cc(=O)n4cc(C)sc4n3)cc2)c1`, for which the inhibition is 1.17%. The value for `Cc1nc2c(C(=O)NCCc3ccccc3)c[nH]n2c(=O)c1Cc1ccccc1F` was -5.13%; that for `COc1cc(NS(=O)(=O)c2cc3c(cc2C)n(C)c(=O)c(=O)n3C)cc(OC)c1` was -6.44%; that for `Fc1ccc(Nc2c(-c3c[nH]c4ccccc34)nc3ccccn23)cc1` was -0.899%. The value for `Cc1ccc(C(=O)Nc2nnc(S(=O)(=O)N3CCCc4ccccc43)s2)cc1` was 25.5%; that for `COc1ccc(C(=O)Nc2ccc3nc(N4CCCCC4)cc(C)c3c2)cc1OC` was 0.533%; that for `COc1ccc(CCNC(=O)c2ccc(CSCc3ccc(C)cc3)o2)cc1OC` was 26.7%. `COCCCNC(=O)C1CCN(C(=O)c2cc3sccc3n2Cc2ccc(Cl)cc2)CC1`: the inhibition was -9.23%. The value for `Cc1cccc(CSc2ccc3nnc(CCNS(=O)(=O)c4ccccc4)n3n2)c1` was -3.64%; that for `CCCCOC(=O)c1ccc(NC(=O)c2cc(=O)c3ccccc3o2)cc1` was -16.5%; that for `Cc1ccc(C)c(N2CCN(C(=O)c3cccn4c(=O)c5ccccc5nc34)CC2)c1` was 12.3%.

Turning to `O=C(O)CCCn1cc(NC(=O)COc2ccccc2F)cn1`, the inhibition is -0.549%. With `O=C(Nc1ccc(OC(F)(F)F)cc1)C(NS(=O)(=O)c1cccc2nsnc12)c1ccccc1` (stereo not given), the inhibition is -23.3%. The value for `CCc1ccc(C(=O)c2cn(CC(=O)Nc3ccc(OC)cc3)c3cc4c(cc3c2=O)OCCO4)cc1` was -11.9%. For `O=C(CSc1ncc2c(n1)-c1cc(Cl)ccc1N(Cc1ccccc1)S2(=O)=O)NCc1ccccc1` the value was 0.448%. Consider `O=C1CSC2(C(=O)N(Cc3c(F)cccc3Cl)c3ccccc32)N1c1ccc(F)c(F)c1` (stereo not given), for which the inhibition was 5.05%. The value for `Cc1ccc(OCCSc2nc3ccccc3n2CC(=O)NC(C)C)cc1` was -11.7%; that for `Cc1ccc(-c2nnn3c2nc(N2CCC(C)CC2)c2ccccc23)cc1` was -8.4%. The value for `CCOc1ccc(NC(=O)c2ncn(-c3ccccc3)n2)cc1` was 0.714%; that for `CCc1ccccc1NC(=O)c1ncoc1-c1ccco1` was 8.46%; that for `Cc1cccc(C)c1OCC(=O)Nc1c(C(=O)c2ccccc2)oc2ccccc12` was -9.98%. The value for `COc1ccc(-c2nnc(SCC(=O)NCCc3ccccc3)nc2-c2ccc(OC)cc2)cc1` was 5.25%. Turning to `Cn1c(CCN2CCN(c3ccccn3)CC2)nc2cc(NS(=O)(=O)c3ccc(Cl)cc3)ccc21`, the inhibition is active: 73.9%.

Turning to `Cc1ccc(NC(=O)CSc2nc3nccnc3c(=O)n2CCc2c[nH]c3ccccc23)c(C)c1`, the inhibition was -7.55%.

Consider `COc1ccc(-c2c(C)nn3c(-c4ccccc4)cc(-c4ccccc4)nc23)cc1`, for which the inhibition is -2.26%. The value for `Cc1oc2ncn(CC(C)C)c(=O)c2c1C(=O)NCCCN1CCCCC1C` (stereo not given) was -12.3%; that for `COc1cccc(Cn2c(=O)n(CC3CCC(C(=O)N4CCOCC4)CC3)c(=O)c3sccc32)c1` (stereo not given) was 7.34%. The value for `Cc1cc(C)c2c(n1)SCC(=O)N2CC(=O)Nc1cccc(C)c1C` was -0.942%; that for `CCc1ccc(Cn2c(CNS(=O)(=O)c3ccc4c(c3)CCCC4)nc3cccnc32)cc1` was 15.9%.

In the case of `CCOc1ccc(NC(=O)c2oc3ccccc3c2NC(=O)Cc2cccs2)cc1`, the inhibition was -8.35%. For the compound `COc1ccc2nc3cc(Cl)ccc3c(Nc3cc(C(C)C)c(O)cc3C)c2c1`, the inhibition is active: 31.3%. For `CCc1ccc2c(c1)c(=O)c(C(=O)c1ccccc1)cn2CC(=O)Nc1ccc(C)c(Cl)c1` the value was 2.32%; for `CCc1ccc2c(c1)c(=O)c(C(=O)c1ccc(C)cc1)cn2CC(=O)Nc1ccccc1C`, -16.6%.

As for `CCCCNc1cc(N2CCN(C3CCCCC3)CC2)c2noc3c2c1C(=O)c1ccccc1-3`, the inhibition was 6.32%. Turning to `CCCCC(=O)N1CCN(c2nc3c(C)c(C)ccc3s2)CC1`, the inhibition was -13.9%.

In the case of `COc1ccccc1C(O)P(=O)(OC(C)C)c1ccc(N(C)C)cc1` (stereo not given), the inhibition is active: 31.2%. On to `Cc1cc(C)c(NC(=O)CSc2cn(CC(=O)N3CCOCC3)c3ccccc23)c(C)c1`, for which the inhibition is -2.02%. For `O=C(Cc1ccc(NC(=O)N2CCCCc3ccccc32)cc1)Nc1ccccc1Br` the value was -10%; for `Cc1ccc(Cl)cc1NC(=O)c1cc(-c2ccc3c(c2)OCCO3)on1`, -19.1%; for `Cc1cccc(NC(=O)CN(C)S(=O)(=O)c2cnc[nH]2)c1C`, -4.39%. For `Cc1ccccc1CN1c2ccccc2-c2nc(SCC(=O)Nc3cc(F)ccc3F)ncc2S1(=O)=O` the value was 0.151%; for `Cc1ccc(-n2ncc(C(=O)NCCCN3CCN(C)CC3)c2C2CCN(C(=O)OC(C)(C)C)CC2)cc1`, -5.87%; for `Cc1cc(C)c(NC(=O)CN2C(=O)CCn3nc(-c4cccn4C)cc32)c(C)c1`, -27.9%. As to `COc1cc(-c2nc3cccc(C)n3c2Nc2ccc3c(c2)OCCO3)ccc1O`, the inhibition is -12.3%. Turning to `CC(=O)c1ccc(N2CCN(c3ncnc4onc(-c5ccc(Cl)cc5)c34)CC2)cc1`, the inhibition was 5.11%. The value for `CCCCOC(=O)c1ccc(NC(=O)CSc2nc3c(c(=O)[nH]2)CCC3)cc1` was 23.5%; that for `COC(=O)c1c(-c2ccc(Cl)cc2)noc1N1CCN(c2cccc(OC)c2)CC1` was -4.31%. The value for `COc1ccc(CCNC(=O)c2ccc(Cn3c(=O)c4ccccc4n(Cc4ccccc4Cl)c3=O)cc2)cc1OC` was -4.66%; that for `Cc1c(C(=O)NCc2ccc(F)cc2)sc2nc(-c3ccccc3)cn12` was -14.6%; that for `CCOc1cc(-c2ccc(OC(=O)c3ccc(Cl)cc3)c(OC)c2)cc(=O)c2c(C)oc(C)c12` was -2.13%. The value for `Oc1c(C(c2ccc(Cl)cc2)N2CCCC2)sc2nc(-c3ccco3)nn12` (stereo not given) was -12.4%. With `CCOc1ccccc1C(=O)NCC(c1ccc(N(C)C)cc1)N1CCc2ccccc21` (stereo not given), the inhibition is -6.06%. Turning to `CN1C(C(=O)NCCc2cccs2)CC2Cn3c(nc4cc(Cl)c(Cl)cc43)C21` (stereo not given), the inhibition was active: 47.5%. Turning to `COc1cccc(-n2c(SCC(=O)Nc3ccc(F)cc3F)nc3c([nH]c4ccccc43)c2=O)c1`, the inhibition was -10.4%. The value for `c1csc(-c2nc3ccccn3c2Nc2ccc3c(c2)OCCO3)c1` was 15.2%. The value for `CCOC(=O)c1[nH]c2ccccc2c1NC(=O)c1ccc(OCC)cc1` was 6.09%.

For the compound `CCN1CCN(CCCNC(=O)c2cnn(-c3ccc(C)cc3)c2C2CCN(C(=O)OC(C)(C)C)CC2)CC1`, the inhibition was -0.545%. Consider `CCCCCn1c(=O)[nH]c2cc(C(=O)N3CCN(c4ccccc4F)CC3)ccc2c1=O`, for which the inhibition was 2.29%. The value for `CCOC(=O)c1cccc(Nc2nc(C(=O)OCC)nc3ccccc23)c1` was 0.995%; that for `CCCOc1ccc(NC(=O)CC2C(=O)N(c3cccc(C)c3)C(=O)N2CCc2ccncc2)cc1` (stereo not given) was -8.95%; that for `CCOc1ccc(-c2cc(C(=O)NCc3ccc(OC)cc3)c3c(-c4ccc(F)cc4)[nH]nc3n2)cc1` was 8.79%. For `Cc1cccc(-c2nc(N3CCN(c4ccc(F)cc4)CC3)c3ccccc3n2)c1` the value was -2.48%; for `CCOC(=O)c1cccc(NC(=O)c2cc3c(=O)n(Cc4cccnc4)ccc3nc2C)c1`, -3.92%; for `Cc1cccc(Nc2nc(N)c([N+](=O)[O-])c(N3CCN(C)CC3)n2)c1`, active: 55.5%. For `CCCCOc1ccccc1NC(=O)Cn1c(-c2cncs2)nc2ccccc21` the value was -10.4%. As to `O=C(NC1CC(=O)N(c2ccccc2)C1)c1cc2ccccc2o1` (stereo not given), the inhibition was -19.4%. The value for `O=C(Nc1nnc(S(=O)(=O)N2CCCC2)s1)c1ccc(F)cc1` was -8.55%; that for `COc1ccc(OC)c(-n2cnc3cc(C(=O)NC4CCCC4)ccc32)c1` was -4.62%. As to `Cc1oc(-c2ccccc2)nc1CNS(=O)(=O)c1ccc(Cl)cc1`, the inhibition was determined as 8.49%. In the case of `Cc1nc2sccn2c(=O)c1S(=O)(=O)N1CCN(c2ccc(F)cc2)CC1`, the inhibition worked out at 3.86%. As to `Cc1cccc(NS(=O)(=O)c2ccc(Cl)c(C(=O)Nc3ccccc3C)c2)c1`, the inhibition amounted to 0.421%. For `CCCN(Cc1cccs1)C(=O)Nc1ccc(Br)c(C)c1` the value was 15.9%; for `CC(C)Cn1c(-c2ccc(S(=O)(=O)N3CCCC3)cc2)csc1=Nc1ccccc1`, -10.8%; for `CCOc1ccc(NC(=O)CN2CCN(CC(=O)Nc3ccc(OC)cc3OC)CC2)cc1`, active: 32.4%.
